Test results as given in the supplement of paper PMC10441789.
The list shows a part of the results. Antibody binding of pooled human sera (four to six donors per pool; dilution not stated) to peptides of the Trypanosoma cruzi antigen TSSA on microarrays. Quantile-normalised fluorescence in arbitrary units, mean of duplicate arrays; higher = more binding. No active / inactive call. The uninfected pools are read here as the healthy donors of the same country. The strongest signals lie near the top of the scale (about 60,000).

test system: pooled sera of chronic Chagas disease patients, Argentina; assay: antibody binding signal (normalised fluorescence) (arbitrary fluorescence units); higher = stronger serum antibody binding to peptide
Experimental: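 Microarray of 15-residue peptides over residues 30-55 of Trypanosoma cruzi TSSAII, each with 1 to 10 substitutions at naturally variable positions, probed with one serum pool per country.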

Sequence	antibody binding signal
SGTDNKTAAGETPSP	212
PSGKDKKPATGGAPS	2940
TENKPAAGGAPSPPG	43100
KEKKAATGGAPSQPG	525
TSSTPPSGKENKPAA	20600
SGKDNKAAAGEAPSQ	1030
SGKEKKAAAGGAPSQ	3460
ENKAATGGTPSPPGA	418
GKEKKAAAGGTPSPP	663
GKDKKTATGGAPSQS	1090
ENKPATGGAPSQSGA	1400
TPPSGTDNKPAAGGA	31800
STPPSGKDNKPATGG	40900
GTEKKAATGEAPSQS	22900
PSGTDNKPATGETPS	37300
KKAAAGGAPSPSGAS	223
KENKPAAGEAPSPSG	299
KDNKTATGGTPSPSG	447
STPPSGTDKKAATGE	35800
SSTPPSGTENKPAAG	53800

Sequence	antibody binding signal
NKAAAGGTPSQSGAS	460
KENKPATGGAPSPPG	511
GTDKKTATGETPSPP	365
PSGKEKKTAAGGTPS	4560
KEKKPATGETPSPSG	21700
TENKAAAGETPSPPG	33800
KDNKPAAGETPSQSG	379
KPATGGTPSPSGASS	415
TDKKAATGGTPSQPG	1190
TSSTPPSGTDNKPAA	38800
DNKTATGGTPSPPGA	347
ENKTAAGEAPSQPGA	7800
PSGKDKKTATGEAPS	11100
GTDNKPAAGEAPSQS	3910
TPPSGTDKKPAAGEA	28400
DKKPAAGGTPSPSGA	652
SGKENKAATGGTPSQ	3260
GKEKKAAAGGAPSPS	1240
ENKTATGEAPSQPGA	18600
TEKKTAAGGAPSPPG	685
